# Experimental data published in PubChem BioAssay AID1240 (Sanford-Burnham Center for Chemical Genomics, 2008).
# Among all 50,000 compounds or so, about 800 (1.6%) showed an effect of 50% or more. Some of the results follow.
# Target: Bcl-2-like protein 10 (Homo sapiens) (UniProt Q9HD36)
# Test: Phenotype converters, Bcl-B/TR3 peptide binding displacement, primary biochemical FP (AID 1240);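 also: 0% = Bcl-B with tracer peptide and DMSO and 100% = tracer peptide lacking Bcl-B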
# Conditions: GST-Bcl-B / FITC-TR3 peptide fluorescence polarization; stronger effect = higher value; compound at 3.75 mg/L
# UniProt Q9HD36, sequence (Q9HD36 whole entry, looked up): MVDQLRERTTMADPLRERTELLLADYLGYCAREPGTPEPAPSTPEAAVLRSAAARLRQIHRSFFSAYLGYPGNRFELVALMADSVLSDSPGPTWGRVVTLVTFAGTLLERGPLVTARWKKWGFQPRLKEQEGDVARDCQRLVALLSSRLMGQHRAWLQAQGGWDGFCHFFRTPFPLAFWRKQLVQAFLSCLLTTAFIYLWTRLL
row,Compound,displacement [%]
1,CCOc1ccc2nc(Nc3nc(O)c(C)c(=O)[nH]3)nc(C)c2c1,-1.1
2,Oc1ccc2ccccc2c1/C=N/Nc1nnc(-c2ccccc2)c(-c2ccccc2)n1,1.7
3,Cc1c(C(=O)Nc2ccc([N+](=O)[O-])cc2)cnn1-c1ccccc1,6.5
4,COc1ccc(N2C(=O)NC(=O)/C(=C\c3ccccc3Cl)C2=O)cc1,-6.1
5,CC1=C(C(=O)OC(C)C)C(c2ccc(F)cc2)NC(=S)N1 (stereo not drawn),4.7
6,CCN1C(=O)/C(=C\c2ccc(OC(=O)c3cccs3)c(OC)c2)SC1=S,12.9
7,CCOC(=O)COc1ccccc1/C=C1\C(=O)NC(=O)N(c2ccc(C)cc2)C1=O,-22.2
8,CCOC(=O)CSCCOc1ccc(/C=C2/C(=O)NC(=O)N(c3ccc(C)cc3)C2=O)cc1OC,8.7
9,CC(=O)c1cc(C(=O)CC(=O)Nc2cccc([N+](=O)[O-])c2)sc1Nc1ccccc1,47.9
10,CCOC(=O)c1[nH]c(C)c(C(C)=O)c1C,0.5
11,C=CCOc1ccc2c(=O)c(-c3ccccc3OC)coc2c1,8.6
12,CC1(C)CC(=O)C2=C(C1)Nc1ccccc1N(C(=O)C(F)(F)F)C2c1ccc(-c2ccc(Br)cc2)o1 (stereo not drawn),-8.5
13,N#C/C(=C/c1ccc2c(c1)OCO2)C(=O)Nc1cccc(Br)c1,-10.3
14,S=C(Nc1ccccc1)Nc1ccc(Cc2ccc(NC(=S)Nc3ccccc3)cc2)cc1,10.2
15,CCOC(=O)c1c(NC(=O)CNCCO)sc(C)c1C,-4.1
16,CCOC(=O)CCCN1C(=O)/C(=C/c2ccccc2)SC1=S,17.7
17,COC(=O)c1cc(C(=O)Nc2ccccc2C(N)=O)cc([N+](=O)[O-])c1,2.8
18,COc1ccccc1N1CCN(CC(O)COc2ccc(C34CC5CC(CC(C5)C3)C4)cc2)CC1 (stereo not drawn),-3.3
19,O=C(O)Cc1ccc(NC(=O)C2CCCCC2C(=O)O)cc1 (stereo not drawn),-5.7
20,COc1ccc(/C=C2/SC(=O)N(CNc3ccc(Br)cc3C)C2=O)c(OC)c1,31.7
21,CCOc1ccccc1/C=C/C(=O)c1cccc(Br)c1,-8.9
22,Oc1[nH]c2ccccc2c1N=NC(=S)N1CCCC1,-14.4

row,Compound,displacement [%]
1,COc1cc2ccccc2cc1C(=O)Nc1ccccc1O,-8.7
2,CC1=NN(C(=O)CCc2ccccc2)C(O)(c2cccnc2)C1 (stereo not drawn),-23.9
3,COc1ccc(Cl)cc1C(=O)NCCCN1CCOCC1,5.6
4,Cc1cc([N+](=O)[O-])ccc1NCc1cccc([N+](=O)[O-])c1,3.1
5,CCCCOC(=O)c1ccc(NS(=O)(=O)c2ccc3ccccc3c2)cc1,12
6,O=C(O)c1ccc2c(c1)C(=O)N(c1ccc(NC(=O)c3ccc(Cl)cc3Cl)c(Cl)c1)C2=O,11.8
7,COc1ccc(OC)c(NC(=O)c2ccccc2Br)c1,-11.3
8,C=CCn1c(=O)[nH]c2sc3c(c2c1=O)CC(C)(C)OC3,1.7
9,O=C(N/N=C/c1cccs1)C1CC(=O)N(c2ccccc2)C1 (stereo not drawn),25
10,O=C(OCCN1CCCCC1)c1ccc(O)cc1,-8.7
11,COc1ccc(/C=C/C(=O)NC(=S)n2cnc3ccccc32)cc1OC,3
12,COc1ccc(NC(=O)c2ccc(Oc3ccc(C(=O)Nc4ccc(OC)cc4)cc3)cc2)cc1,12.5
13,COc1cc(Cl)ccc1NC(=O)c1cnn2c(C(F)(F)F)cc(-c3ccco3)nc12,9.9
14,O=C(NN1C(=O)c2ccccc2C1=O)c1cccc(F)c1,-2.5
15,COc1cccc2cc(C(=O)NNC(=O)c3ccc(Br)cc3)c(=O)oc12,16.2
16,NS(=O)(=O)c1ccc(CNC(=O)c2ccccc2Cl)cc1,9.2
17,CC(=O)Oc1ccc2occ(C(=O)c3ccc(C)cc3)c2c1,-11.5
18,CCOc1ccc(/C=C/C(=O)c2cccs2)cc1,-7.2
19,Cc1ccc(CN2CCN(N=Cc3ccccc3OCC(=O)O)CC2)c(C)c1,12.1
20,COc1c(Cl)cc(C(=O)Nc2cc(C)ccc2C)cc1Cl,14.6
21,CCOC(=O)c1ccccc1NC(=O)CN(c1ccc(C)c(Cl)c1)S(C)(=O)=O,1.1
22,Cc1cc(C)nc(NS(=O)(=O)c2ccc(NC(=O)c3cc(Cl)cc(Cl)c3)cc2)n1,12

row,Compound,displacement [%]
1,C=CCOn1c(=O)c(C)[n+]([O-])c2ccccc21,12.9
2,COc1ccccc1NCN1C(=O)C2CCCCC2C1=O (stereo not drawn),24.6
3,O=C1CC(N2CCN(c3ccccc3Cl)CC2)C(=O)N1c1cccc(Br)c1 (stereo not drawn),5.9
4,CCOc1cc(OCC)cc(C(=O)Nc2cccc(-c3nc4cc(C)ccc4o3)c2C)c1,-4.6
5,Cc1cccc(C)c1-n1c(C)cc(/C=N/NC(=O)CN2CCOCC2)c1C,-10
6,CCc1ccc(NC(Nc2ccc(CC)cc2)=C(S(=O)(=O)CC)S(=O)(=O)CC)cc1,9.3
7,COc1ccccc1N1CCN(CC(O)COC2CC(C)CCC2C(C)C)CC1 (stereo not drawn),-2.6
8,CC(=O)Nc1ccc(NC(=O)CSc2nc3ccccc3o2)cc1,12.2
9,O=C(O)CCC(=O)N1N=C(c2c(-c3ccccc3)c3cc(Cl)ccc3[nH]c2=O)CC1c1ccco1 (stereo not drawn),18
10,O=C1SC(Nc2ccccc2)C(=O)N1c1ccc(Br)cc1 (stereo not drawn),4.1
11,COc1ccc(C(=O)/C=C/Nc2ccccn2)cc1,9.1
12,O=C(Nc1ccccc1)Nc1nc(-c2ccc(Cl)cc2Cl)cs1,-8.4
13,O=C(N/N=C/c1ccc(O)cc1O)c1[nH]c2ccc([N+](=O)[O-])cc2c1-c1ccccc1,22.7
14,Cc1ccc(/C=N/n2cnnc2)cc1[N+](=O)[O-],10.6
15,COc1ccc(C(=O)Nc2nc3c(C)cc(C)cc3s2)cc1Br,5.3
16,CCOC(=O)c1c(NC(=O)c2ccc(Cl)cc2Cl)sc(C(N)=O)c1C,88.7
17,Cc1ccc(N2NC(=O)/C(=C/c3ccccc3O)C2=O)cc1C,24.6
18,Cn1c(NC(=O)c2ccc3c(c2)OCO3)cc(=O)n(C)c1=O,10
19,CCOC(=O)CCc1cc(C(=O)OCC)c(CCC(=O)OCC)cc1C(=O)OCC,-8.1
20,COc1ccccc1OCC(=O)NC1CCS(=O)(=O)C1 (stereo not drawn),6.1
21,Cc1ccc(-c2csc(NC(=O)c3cccc(Br)c3)n2)cc1,4.8
22,O=C1c2ccccc2C(=O)N1Cc1nc2ccc(I)cc2c(=O)o1,1.6

row,Compound,displacement [%]
1,Cc1cccc(N2C(=O)/C(=C/c3ccccc3Cl)SC2=S)c1C,11.8
2,Cc1ccc(N=Cc2c(O)n(-c3ccc(F)cc3)c(=O)[nH]c2=O)cc1,49.9
3,Cc1ccc(N2CC(C(=O)NCc3ccccc3)CC2=O)cc1 (stereo not drawn),-2.6
4,Cc1ccc(-c2nn(-c3ccccc3)cc2C=C2C(=O)CC(C)(C)CC2=O)cc1,8.3
5,Cc1ccc2nc(Nc3nc4ccccc4c(=O)[nH]3)nc(C)c2c1,3.4
6,Cc1cccc(NC2=C(Cl)C(=O)N(c3ccc(Cl)cc3)C2=O)c1C,7.8
7,CC(N=Cc1cccc([N+](=O)[O-])c1)C1COc2ccccc2O1 (stereo not drawn),8.6
8,O=C(CSc1ncn(-c2ccccc2)n1)c1ccc(Br)cc1,11.5
9,Cc1ccc(CC/C=N/N=C2\NC(=O)CS2)o1,-17
10,COc1ccc(NC(=O)c2ccc3c(c2)C(=O)N(c2cccc(C)c2)C3=O)cc1,17.3
11,C=CCn1c(SCC(=O)OCC)nc2sc3c(c2c1=O)CCC3,-6.2
12,NC(CC(=O)O)c1cccc(Br)c1 (stereo not drawn),8
13,CCOc1ccc(NC(=O)CN(c2cc(OC)ccc2OC)S(C)(=O)=O)cc1,1.4
14,COc1ccc(C(=O)/C=C/Nc2cccc(C)c2)cc1,-5.1
15,COc1ccc(CC(=O)Nc2ccc(C)c(NC(=O)c3ccccc3)c2)cc1OC,9.1
16,O=C1NN(c2cccc(Cl)c2)C(=O)/C1=C\c1ccc(-c2cccc(C(=O)O)c2)o1,29.6
17,O=C(CC1Sc2ccccc2NC1=O)Nc1cccc(C(=O)O)c1 (stereo not drawn),-11.6
18,COc1ccc(CCNC(=O)CN(c2ccc(Oc3ccccc3)cc2)S(C)(=O)=O)cc1OC,7.8
19,CCSc1nnc(NC(=O)c2cc(-c3ccc(OC)cc3)nc3ccccc23)s1,0.6
20,O=[N+]([O-])c1ccc(N2CCN(S(=O)(=O)c3ccccc3)CC2)cc1NC1CC1,5.2
21,COc1cccc(OC)c1C(=O)N(C)CC(OC)OC,3.4
22,O=C(COc1ccc(Cl)cc1)Nc1cccc(-c2nc3ccccc3s2)c1,12.1

row,Compound,displacement [%]
1,CCCOc1ccc(/C=N/Nc2nc(-c3ccccc3)cc(-c3ccccc3O)n2)c(O)c1,-2.2
2,Cc1cccc(OCCOCCN2CCC(C)CC2)c1C,5.6
3,O=C(Nc1ccc(-c2nc3ccccc3o2)c(O)c1)c1ccccc1I,-4
4,O=S(=O)(Nc1ccc(O)c(-c2c(O)ccc3ccccc23)c1)c1cc(Cl)ccc1Cl,12.7
5,COc1ccc(N(CC(=O)NC(C)c2ccccc2)S(C)(=O)=O)cc1 (stereo not drawn),11.3
6,O=C(CSc1nc2ccccc2s1)c1ccc(Cl)cc1Cl,-1
7,O=C1NN(c2ccccc2)C(=O)/C1=C/c1ccc(-c2ccccc2[N+](=O)[O-])o1,-15.8
8,O=C(Nc1c(F)cc(F)cc1Br)c1cc2n(n1)C(C(F)(F)F)CC(c1cccs1)N2 (stereo not drawn),4.3
9,CCCCCSc1nnc2c(n1)[nH]c1ccccc12,5
10,Cn1c(=O)c2c(nc(SCc3ccc([N+](=O)[O-])cc3)n2C)n(C)c1=O,19
11,C=CCNC(=O)c1ccc(-c2ccc([N+](=O)[O-])cc2C)o1,9.1
12,O=C(Nc1ccc(OC(F)(F)F)cc1)c1ccc2ccccc2c1,0.4
13,CCN1C(=O)/C(=C\c2ccc(O)c(OC)c2)C(C(=O)OC)=C1C,10
14,CC1(C)CC(=O)C2=C(C1)N=C1c3ccccc3C(=O)C1C2c1cccs1 (stereo not drawn),-0.6
15,Cc1ccc(N2C(=O)/C(=C/c3cc(Br)ccc3O)C(=O)NC2=S)cc1,7.5
16,CCOC(=O)c1cnc(-c2ccccc2)nc1NC,-9.7
17,CCOCCOC(=O)c1cccc(NC(=O)Cc2ccccc2)c1,-2.4
18,S=c1[nH]nc(-c2ccccc2Br)n1C1CCCCC1,-0.7
19,Nc1nonc1-n1nnc(C(=O)N/N=C/c2cccc(O)c2)c1-c1ccccc1,24.6
20,N/C(=N\OC(=O)c1ccc(Cl)cc1Cl)c1ccc(Br)cc1,1.6
